Sequences with one replicate were seen in a single cluster, so their values are uncertain.
Test system: ATP
Assay: switch fluorescence ratio, 500 uM ATP over buffer (Cy3 cluster intensity, sum of 5 cycles each) (fold (ratio)); higher = stronger signal-on switching upon ATP binding; sequences stand for … in TCGTCGGCAGCGTCAGATGTGTATAAGAGACAGTTTTTTTTTTTTTTTTTTTTTTTTT…TC
Conditions: aptamer strand: ATP DNA aptamer (quencher-CACCTGGGGGAGTATTGCGGAGGAAGG + anchor), 100 nM annealed; ATP concentration: 500 uM; one replicate
In short: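 Imaging in selection buffer was followed by imaging after 15 min with 500 uM ATP at 22 °C, for Cy3-labelled switching-strand clusters annealed to 100 nM quencher-labelled ATP aptamer on a modified Illumina MiSeq flow-cell. Five of these buffer/ATP cycles ran, separated by NaOH stripping and re-annealing. The fluorescence ratio per cluster is summed target-cycle over summed buffer-cycle Cy3 intensity, averaged per switch-domain sequence; clusters outside 100-1000 RFU were removed.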
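Further: ATP exposure 15 min at 22 °C before imaging.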

Question: How did the switch fluorescence ratio turn out when CGAATTGAGA was run?
Answer: 1.01

Question: For CGACAGCGCT, which switch fluorescence ratio is on record?
Answer: 1.05

Question: CGACAGTATA was tested. Which switch fluorescence ratio did it give?
Answer: 1.16

Question: Which switch fluorescence ratio does the source give for CGACCCGGAG here?
Answer: 1.1

Question: Which switch fluorescence ratio does the source give for CGACCGAGC here?
Answer: 1.51

Question: Which switch fluorescence ratio does the source give for CGACCGTGGC here?
Answer: 1.23

Question: With CGACCGTGTT as the sequence, how does the switch fluorescence ratio read?
Answer: 0.977

Question: Which switch fluorescence ratio does the source give for CGACGAATGG here?
Answer: 1.37

Question: With CGACGACATT as the sequence, how does the switch fluorescence ratio read?
Answer: 1.94

Question: CGACGAGAAG was tested. Which switch fluorescence ratio did it give?
Answer: 1.04

Question: Which switch fluorescence ratio does the source give for CGACGGACAA here?
Answer: 2.6

Question: With CGACGGCGAT as the sequence, how does the switch fluorescence ratio read?
Answer: 1.14

Question: With CGACGTCGCG as the sequence, how does the switch fluorescence ratio read?
Answer: 0.961

Question: How did the switch fluorescence ratio turn out when CGACTGTTCT was run?
Answer: 1

Question: For CGAGACGCCT, which switch fluorescence ratio is on record?
Answer: 0.977

Question: How did the switch fluorescence ratio turn out when CGAGAGGTTC was run?
Answer: 1

Question: CGAGATCGGT was tested. Which switch fluorescence ratio did it give?
Answer: 1.03

Question: Which switch fluorescence ratio does the source give for CGAGATGGGG here?
Answer: 0.96

Question: Which switch fluorescence ratio does the source give for CGAGATTTGG here?
Answer: 0.963

Question: For CGAGCAGCTG, which switch fluorescence ratio is on record?
Answer: 1.09

Question: Which switch fluorescence ratio does the source give for CGAGCATCAC here?
Answer: 3.12

Question: With CGAGCCGGGT as the sequence, how does the switch fluorescence ratio read?
Answer: 1.01

Question: For CGAGCGATTA, which switch fluorescence ratio is on record?
Answer: 1.63

Question: For CGAGCGGTGA, which switch fluorescence ratio is on record?
Answer: 1.06

Question: CGAGCGTATT was tested. Which switch fluorescence ratio did it give?
Answer: 1.02

Question: How did the switch fluorescence ratio turn out when CGAGCTAAGG was run?
Answer: 1.08

Question: Which switch fluorescence ratio does the source give for CGAGCTTAGT here?
Answer: 1.01

Question: With CGAGCTTCAG as the sequence, how does the switch fluorescence ratio read?
Answer: 0.995

Question: Which switch fluorescence ratio does the source give for CGAGGAGCCG here?
Answer: 0.988

Question: How did the switch fluorescence ratio turn out when CGAGGCGCA was run?
Answer: 0.972

Question: How did the switch fluorescence ratio turn out when CGAGGCTACC was run?
Answer: 1.22

Question: With CGAGGCTGTC as the sequence, how does the switch fluorescence ratio read?
Answer: 0.967

Question: With CGAGGGAAGT as the sequence, how does the switch fluorescence ratio read?
Answer: 0.99

Question: For CGAGGGAGCT, which switch fluorescence ratio is on record?
Answer: 1.05

Question: Which switch fluorescence ratio does the source give for CGAGGGCGCA here?
Answer: 1.03

Question: How did the switch fluorescence ratio turn out when CGAGGGGATC was run?
Answer: 1.05

Question: CGAGGGGGCG was tested. Which switch fluorescence ratio did it give?
Answer: 1.11

Question: How did the switch fluorescence ratio turn out when CGAGGGTCGA was run?
Answer: 1.03

Question: For CGAGGTACCT, which switch fluorescence ratio is on record?
Answer: 0.993

Question: With CGAGGTCAGC as the sequence, how does the switch fluorescence ratio read?
Answer: 1

Question: With CGAGGTCGGT as the sequence, how does the switch fluorescence ratio read?
Answer: 0.995

Question: For CGAGGTTCAG, which switch fluorescence ratio is on record?
Answer: 0.991

Question: Which switch fluorescence ratio does the source give for CGAGGTTGAG here?
Answer: 0.988

Question: CGAGTAGGTA was tested. Which switch fluorescence ratio did it give?
Answer: 0.949

Question: CGAGTGAACA was tested. Which switch fluorescence ratio did it give?
Answer: 1.03

Question: How did the switch fluorescence ratio turn out when CGAGTGGTAC was run?
Answer: 1.29

Question: With CGAGTTATTC as the sequence, how does the switch fluorescence ratio read?
Answer: 1.03

Question: How did the switch fluorescence ratio turn out when CGATAATCGG was run?
Answer: 0.987

Question: Which switch fluorescence ratio does the source give for CGATACTGAT here?
Answer: 1.02

Question: For CGATAGAAGA, which switch fluorescence ratio is on record?
Answer: 0.941

Question: CGATATCCGT was tested. Which switch fluorescence ratio did it give?
Answer: 1.02

Question: CGATATCGGA was tested. Which switch fluorescence ratio did it give?
Answer: 0.999

Question: For CGATATTTCA, which switch fluorescence ratio is on record?
Answer: 0.995

Question: CGATCGCGTA was tested. Which switch fluorescence ratio did it give?
Answer: 1.14

Question: For CGATCGGGGG, which switch fluorescence ratio is on record?
Answer: 0.989

Question: CGATCTAGTG was tested. Which switch fluorescence ratio did it give?
Answer: 1

Question: Which switch fluorescence ratio does the source give for CGATCTGGA here?
Answer: 0.997

Question: CGATGAAGTC was tested. Which switch fluorescence ratio did it give?
Answer: 1.01

Question: CGATGCAAGA was tested. Which switch fluorescence ratio did it give?
Answer: 5.21

Question: With CGATGCGGGA as the sequence, how does the switch fluorescence ratio read?
Answer: 1.07

Question: With CGATGGTTCA as the sequence, how does the switch fluorescence ratio read?
Answer: 1

Question: With CGATGGTTCC as the sequence, how does the switch fluorescence ratio read?
Answer: 0.993

Question: Which switch fluorescence ratio does the source give for CGATGTTTAT here?
Answer: 1.03

Question: Which switch fluorescence ratio does the source give for CGATTAGGCT here?
Answer: 0.988

Question: How did the switch fluorescence ratio turn out when CGATTCCGCA was run?
Answer: 3.02

Question: Which switch fluorescence ratio does the source give for CGATTCGTT here?
Answer: 1

Question: For CGATTCTTCG, which switch fluorescence ratio is on record?
Answer: 1.05

Question: With CGATTGAAGA as the sequence, how does the switch fluorescence ratio read?
Answer: 1.01

Question: Which switch fluorescence ratio does the source give for CGATTGATCG here?
Answer: 1.01

Question: For CGATTGGCAT, which switch fluorescence ratio is on record?
Answer: 1.13

Question: With CGATTGTACA as the sequence, how does the switch fluorescence ratio read?
Answer: 1.01

Question: For CGATTGTGTG, which switch fluorescence ratio is on record?
Answer: 0.971

Question: How did the switch fluorescence ratio turn out when CGATTGTTGT was run?
Answer: 1.02

Question: How did the switch fluorescence ratio turn out when CGCAAAAACA was run?
Answer: 1.07

Question: Which switch fluorescence ratio does the source give for CGCAAAATCT here?
Answer: 1.86

Question: With CGCAAATGCC as the sequence, how does the switch fluorescence ratio read?
Answer: 1.71

Question: For CGCAATGATC, which switch fluorescence ratio is on record?
Answer: 6.11

Question: With CGCACAATA as the sequence, how does the switch fluorescence ratio read?
Answer: 1.62

Question: How did the switch fluorescence ratio turn out when CGCACAGACT was run?
Answer: 3.01

Question: For CGCACGGCCC, which switch fluorescence ratio is on record?
Answer: 1.3

Question: With CGCACGGCTG as the sequence, how does the switch fluorescence ratio read?
Answer: 1.16

Question: Which switch fluorescence ratio does the source give for CGCACTGGCC here?
Answer: 1.14

Question: With CGCAGACTT as the sequence, how does the switch fluorescence ratio read?
Answer: 1.42

Question: With CGCAGATGCC as the sequence, how does the switch fluorescence ratio read?
Answer: 1.14

Question: How did the switch fluorescence ratio turn out when CGCAGATTTT was run?
Answer: 1

Question: With CGCAGCCCGG as the sequence, how does the switch fluorescence ratio read?
Answer: 1.35

Question: How did the switch fluorescence ratio turn out when CGCAGGATAG was run?
Answer: 1.34

Question: For CGCAGGCGTG, which switch fluorescence ratio is on record?
Answer: 1.03

Question: Which switch fluorescence ratio does the source give for CGCAGGGGAA here?
Answer: 1.02

Question: How did the switch fluorescence ratio turn out when CGCAGGGTGT was run?
Answer: 1.24

Question: Which switch fluorescence ratio does the source give for CGCAGTTCAT here?
Answer: 0.958

Question: How did the switch fluorescence ratio turn out when CGCATAGGGG was run?
Answer: 1.29

Question: CGCATATCAG was tested. Which switch fluorescence ratio did it give?
Answer: 1.11

Question: For CGCATCCGAA, which switch fluorescence ratio is on record?
Answer: 1.02

Question: How did the switch fluorescence ratio turn out when CGCATGAATT was run?
Answer: 1.03

Question: How did the switch fluorescence ratio turn out when CGCATGCGGA was run?
Answer: 1.01

Question: With CGCATGCGGT as the sequence, how does the switch fluorescence ratio read?
Answer: 1.04

Question: With CGCATGTGGG as the sequence, how does the switch fluorescence ratio read?
Answer: 1.04

Question: CGCATTAAGA was tested. Which switch fluorescence ratio did it give?
Answer: 1.12

Question: CGCATTCACT was tested. Which switch fluorescence ratio did it give?
Answer: 2.64

— the supplement of paper PMC10126150
